Results from EPA's CvTdb concentration-time database.
Further values from the same series stand in other lists.

What was measured:
Experiment in all cases: concentration in plasma after dosing
Rat [1] = conditions: 0.5 h; dosed: Dibromoacetic acid; 50 mg/kg; oral; Male; Harlan Sprague Dawley
Rat [2] = conditions: dosed: Dibromoacetic acid, 125 mg/kg, oral, Male, F344
Rat [3] = conditions: dosed: Dibromoacetic acid, 125 mg/kg, oral, Female, Harlan Sprague Dawley
Rat [4] = conditions: dosed: Dibromoacetic acid, 50 mg/kg, oral, Female, Harlan Sprague Dawley
Rat [5] = conditions: dosed: Dibromoacetic acid, 25 mg/kg, iv, Female, F344
Rat [6] = conditions: dosed: Dibromoacetic acid, 25 mg/kg, iv, Female, F344; remark: listed apart in the source
Rat [7] = conditions: 0.5 h; dosed: Dibromoacetic acid; 25 mg/kg; iv; Female; F344
Rat [8] = conditions: 0.5 h; dosed: Dibromoacetic acid; 25 mg/kg; iv; Male; F344
Rat [9] = conditions: dosed: Dibromoacetic acid, 125 mg/kg, oral, Female, Harlan Sprague Dawley; remark: listed apart in the source
Rat [10] = conditions: dosed: Dibromoacetic acid, 125 mg/kg, oral, Male, F344; remark: listed apart in the source
Rat [11] = conditions: 10 min; dosed: Dibromoacetic acid; 125 mg/kg; oral; Female; F344
Rat [12] = conditions: dosed: Dibromoacetic acid, 25 mg/kg, iv, Female, F344; remark: listed apart in the source
Rat [13] = conditions: dosed: Dibromoacetic acid, 50 mg/kg, oral, Female, Harlan Sprague Dawley; remark: listed apart in the source
Rat [14] = conditions: dosed: Dibromoacetic acid, 125 mg/kg, oral, Male, F344; remark: listed apart in the source
Rat [15] = conditions: dosed: Dibromoacetic acid, 50 mg/kg, oral, Male, Harlan Sprague Dawley
Rat [16] = conditions: 10 min; dosed: Dibromoacetic acid; 125 mg/kg; oral; Female; F344; remark: listed apart in the source
Rat [17] = conditions: dosed: Dibromoacetic acid, 25 mg/kg, iv, Female, F344; remark: listed apart in the source
Rat [18] = conditions: dosed: Dibromoacetic acid, 50 mg/kg, oral, Female, Harlan Sprague Dawley; remark: listed apart in the source
Rat [19] = conditions: 1 h; dosed: Potassium Perfluorobutane Sulfonate; 20 mg/kg; oral; Female; Harlan Sprague Dawley
Rat [20] = conditions: 1 h; dosed: Potassium Perfluorobutane Sulfonate; 4 mg/kg; oral; Female; Harlan Sprague Dawley
Rat [21] = conditions: 3 h; dosed: Potassium Perfluorobutane Sulfonate; 20 mg/kg; oral; Male; Harlan Sprague Dawley
Rat [22] = conditions: dosed: Potassium Perfluorobutane Sulfonate, 100 mg/kg, oral, Female, Harlan Sprague Dawley
Rat [23] = conditions: 1 h; dosed: Potassium Perfluorobutane Sulfonate; 4 mg/kg; oral; Female; Harlan Sprague Dawley; remark: listed apart in the source
Rat [24] = conditions: 0.5 h; dosed: Potassium Perfluorobutane Sulfonate; 20 mg/kg; oral; Male; Harlan Sprague Dawley
Rat [25] = conditions: 1.5 h; dosed: Potassium Perfluorobutane Sulfonate; 100 mg/kg; oral; Female; Harlan Sprague Dawley
Rat [26] = conditions: dosed: Potassium Perfluorobutane Sulfonate, 100 mg/kg, oral, Male, Harlan Sprague Dawley
Rat [27] = conditions: dosed: Potassium Perfluorobutane Sulfonate, 100 mg/kg, oral, Male, Harlan Sprague Dawley; remark: listed apart in the source
Rat [28] = conditions: dosed: Potassium Perfluorobutane Sulfonate, 100 mg/kg, oral, Male, Harlan Sprague Dawley; remark: listed apart in the source
Rat [29] = conditions: 1.5 h; dosed: Potassium Perfluorobutane Sulfonate; 4 mg/kg; oral; Female; Harlan Sprague Dawley
Rat [30] = conditions: 1 h; dosed: Potassium Perfluorobutane Sulfonate; 20 mg/kg; oral; Male; Harlan Sprague Dawley
Rat [31] = conditions: dosed: Potassium Perfluorobutane Sulfonate, 4 mg/kg, oral, Female, Harlan Sprague Dawley
Rat [32] = conditions: dosed: Potassium Perfluorobutane Sulfonate, 4 mg/kg, oral, Female, Harlan Sprague Dawley; remark: listed apart in the source
Rat [33] = conditions: 0.25 h; dosed: Potassium Perfluorobutane Sulfonate; 20 mg/kg; oral; Female; Harlan Sprague Dawley
Rat [34] = conditions: 6 h; dosed: Potassium Perfluorobutane Sulfonate; 20 mg/kg; oral; Female; Harlan Sprague Dawley
Rat [35] = conditions: dosed: Potassium Perfluorobutane Sulfonate, 100 mg/kg, oral, Female, Harlan Sprague Dawley; remark: listed apart in the source
Rat [36] = conditions: 1 h; dosed: Potassium Perfluorobutane Sulfonate; 20 mg/kg; oral; Male; Harlan Sprague Dawley; remark: listed apart in the source

O=C(O)C(Br)Br [Dibromoacetic acid]
Conditions	concentration in plasma [ng/mL]
Rat [1]	40000
Rat [7]	11400
Rat [8]	13900
Rat [11]	60800
Rat [16]	67000

Conditions	concentration in plasma [ng/mL]
Rat [2], 0.5 h	67200
Rat [2], 6 h	2760
Rat [3], 0.75 h	88300
Rat [3], 4 h	9390
Rat [4], 1.5 h	18800
Rat [4], 20 min	16900
Rat [5], 1 h	3200
Rat [5], 20 min	22100
Rat [6], 7 min	37400
Rat [6], 50 min	3310
Rat [9], 0.5 h	74800
Rat [9], 6 h	2530
Rat [10], 1 h	91400
Rat [10], 2 h	39000
Rat [12], 0.2 h	32000
Rat [12], 55 min	3080
Rat [13], 1 h	19500
Rat [13], 2 h	9310
Rat [14], 0.5 h	70000
Rat [14], 6 h	286
Rat [15], 1.5 h	14000
Rat [15], 20 min	24100
Rat [17], 0.75 h	3560
Rat [17], 5 min	42500
Rat [18], 0.75 h	29500
Rat [18], 4 h	1700

O=S(=O)([O-])C(F)(F)C(F)(F)C(F)(F)C(F)(F)F.[K+] [Potassium Perfluorobutane Sulfonate]
Conditions	concentration in plasma [ng/mL]
Rat [19]	30300
Rat [20]	8390
Rat [21]	62500
Rat [23]	9600
Rat [24]	39600
Rat [25]	96500
Rat [29]	7940
Rat [30]	69400
Rat [33]	35900
Rat [34]	2870
Rat [36]	78500

Conditions	concentration in plasma [ng/mL]
Rat [22], 0.25 h	106000
Rat [22], 6 h	52300
Rat [26], 1 h	207000
Rat [26], 24 h	1610
Rat [27], 3 h	177000
Rat [27], 5 min	18700
Rat [28], 0.5 h	235000
Rat [28], 9 h	22600
Rat [31], 0.25 h	3590
Rat [31], 6 h	1210
Rat [32], 0.25 h	6250
Rat [32], 6 h	350
Rat [35], 0.5 h	171000
Rat [35], 9 h	6980
